# Results taken from PubChem BioAssay AID463173 (ICCB-Longwood Screening Facility, Harvard Medical School, 2010).
# Out of some 52,000 compounds screened, about 4,300 (8.3%) were called active. Cut-off read from the data, not from the text of the source: active = survival mostly below about 52% (no sharp cut-off); inactive = mostly above about 56%. Some of the results follow.
# Tested on: DeltatarO mutant
# Assay: S. aureus survival, RN4220 and DeltatarO strains – OD600, teichoic acid synthesis inhibitors, primary screen (AID 463173)
# Conditions: S. aureus RN4220 wild type/DeltatarO growth, OD600, 18 h, stronger effect = lower value, screened at 18.75 µg/mL (by protocol)
row,Compound,survival
1,COc1cccc(CNC(=O)N2CCC(CN3CCC(C)CC3)CC2)c1,inactive: 102%
2,CCc1cccc(NC(=O)c2nc(-c3ccncc3)no2)c1,inactive: 94%
3,CCOc1ccc(C(=O)Nc2ccc(-c3nc4cc(C(C)C)ccc4o3)cc2)cc1Cl,inactive: 65%
4,COc1ccc(C2=NN(CC(=O)NCc3ccccc3Cl)C(=O)CC2)cc1,inactive: 107%
5,COc1cccc(CCNC(=O)c2c(O)nc3cc(C)ccn3c2=O)c1,inactive: 82%
6,COc1ccc(-c2nc(CCNC(=O)c3cccs3)cs2)cc1OC,inactive: 134%
7,Cc1c(NC=O)c(=O)n(-c2ccccc2)n1C,inactive: 73%
8,COCCCNC(=O)Nc1cc(C(=O)NCc2ccc(OC)cc2)ccc1N1CCCC1,inactive: 67%
9,CCc1ccccc1NC(=O)C(NS(=O)(=O)c1ccc2c(c1)CCC(=O)N2)c1ccccc1 (stereo not drawn),inactive: 90%
10,COc1ccc(NC(=O)CSc2nc(-c3ccc(OC)cc3)[nH]c2-c2ccc(F)cc2)cc1,inactive: 77%
11,COc1ccccc1NC(=O)c1ccccc1NC(=O)c1ccccc1,active: 20%
12,CN(C)c1ccc(CNC(=O)CCC(=O)N2Cc3ccccc3Oc3ncccc32)cc1,inactive: 83%
13,COc1cc2cc(CNc3ccc(C)cc3)c(=O)n(CC(=O)Nc3ccc(C(C)C)cc3)c2cc1OC,inactive: 112%
14,COc1ccc(-c2c3c(nc4sc(C(=O)Nc5ccc(Cl)cc5)c(N)c24)CC(C)(C)CC3=O)cc1,inactive: 55%
15,Cc1ccc(-c2cc(C(F)F)n3ncc(C(=O)NCC4CCCO4)c3n2)cc1 (stereo not drawn),inactive: 87%
16,Cc1ccc(CN(C(=O)COc2ccc(C(C)(C)C)cc2)C2CCS(=O)(=O)C2)o1 (stereo not drawn),inactive: 78%
17,Cn1nnc2c(N3CCCCC3)ncnc21,inactive: 69%
18,CCOc1ccccc1NC(=O)CN(CCc1ccccc1)S(=O)(=O)c1ccc(C)cc1,inactive: 106%
19,COCCc1nn2c(=O)cc(COC(=O)c3cccs3)nc2s1,inactive: 77%
20,CCn1ccc2cc(S(=O)(=O)N3CCC(C(=O)NCCc4ccc(SC)cc4)CC3)ccc21,inactive: 102%

row,Compound,survival
1,CCc1cccc(C)c1NC(=O)CN1C(=O)c2c(c3ccccc3n2C)C1c1ccc(OC)cc1 (stereo not drawn),inactive: 83%
2,COc1ccccc1CNC(=O)c1cc(Sc2cccc(Cl)c2)nc2ccccc12,inactive: 120%
3,COc1cc(OC)c(NC(=O)C2=C(C)C(=O)OC23CCCCC3)cc1Cl,inactive: 84%
4,CC(C)(O)c1cc(=N)sc2nc3ccccc3n12,inactive: 87%
5,C=CCN1C=C/C(=C\C=C(C#N)C#N)c2ccccc21,inactive: 82%
6,CCc1ccc(C(=O)c2cnc3ccc(C)cc3c2S(=O)(=O)c2ccc(OC)cc2)cc1,inactive: 116%
7,COc1ccc2cc(CNc3ccc(C)cc3)c(=O)n(CC(=O)Nc3ccc(OC)c(Cl)c3)c2c1,inactive: 89%
8,O=C(CCCn1c(=O)c2sccc2n(Cc2ccc(F)cc2Cl)c1=O)NCc1ccc2c(c1)OCO2,inactive: 66%
9,O=c1cc(-c2ccccc2)n2c(SCc3ccc([N+](=O)[O-])cc3)nnc2[nH]1,inactive: 81%
10,COC(=O)c1ccccc1NC(=O)c1ccc2c(c1)CCN2S(=O)(=O)c1ccc(C)cc1,inactive: 52%
11,Cc1ccc2c(c1)-c1c(ssc1=S)C(C)(C)N2C(=O)CN1CCOCC1,inactive: 50%
12,O=C(O)Cn1nc(N2CCN(c3ccc(F)cc3)CC2)ccc1=O,inactive: 84%
13,Cc1ccc(NC(=O)C2=C(C(=O)O)CCCC2)cc1Br,inactive: 94%
14,O=C1OC(c2ccc(Br)o2)=N/C1=C/c1ccco1,inactive: 98%
15,CCCCn1c(CNC(=O)C23CC4CC(CC(C4)C2)C3)nnc1SCC(=O)Nc1ccccc1,inactive: 54%
16,Cc1ncc(COC(=O)C(C)C)c2cc(C(=O)Nc3ccccc3C(F)(F)F)c(=O)oc12,inactive: 134%
17,CCN(CC)CCCNC(=O)CCc1c(C)n(CC)c2cc(-c3ccccc3OC)nn2c1=O,inactive: 92%
18,COC(=O)NNC(=O)C1CCC(C)CC1 (stereo not drawn),inactive: 56%
19,CN1c2ccc(Cl)cc2-c2nc(SCC(=O)Nc3cc(F)ccc3F)ncc2S1(=O)=O,inactive: 72%
20,Cc1cccc(N2C(=O)CS(=O)(=O)C23C(=O)N(C)c2ccccc23)c1 (stereo not drawn),inactive: 85%

row,Compound,survival
1,Cc1c(C(=O)N2CCCC2)oc2c1-c1nn(CC(=O)NCc3cccc(F)c3)cc1CC2,inactive: 80%
2,Cc1ccc2c(c1)N(C(=O)N1CCC(C(=O)NCCC3=CCCCC3)CC1)CC(C)O2 (stereo not drawn),inactive: 81%
3,O=C(CCc1nc2cccnc2n1Cc1ccccc1)NCc1cccc(Cl)c1,active: 51%
4,Cc1ccccc1Nc1ncnc2c1c(-c1ccccc1)cn2-c1ccc(F)cc1,inactive: 72%
5,O=C(Nc1cccc(Cl)c1)c1ccc2nc(Cc3ccccc3)oc2c1,inactive: 81%
6,OCc1cnc(SCc2cccc(F)c2)n1Cc1ccc(F)cc1,inactive: 134%
7,COc1ccccc1C(=O)Nc1cccc(C(=O)OCc2cc(=O)n3nc(C)sc3n2)c1,inactive: 77%
8,Cc1c(Cl)cccc1NC(=O)Cn1nnc2sc3c(c2c1=O)CCCC3,inactive: 75%
9,O=C(c1cc2ccc3cccnc3c2[nH]1)N1CCN(c2ccc(Cl)cc2)CC1,inactive: 84%
10,O=C(Nc1cccc(Cl)c1Cl)c1cc(S(=O)(=O)NCCc2ccccc2)ccc1F,inactive: 87%
11,NC(=O)CSc1ncc2c(n1)-c1ccccc1N(Cc1ccc(Cl)cc1)S2(=O)=O,inactive: 64%
12,O=C(CN1C(=O)C2(SCC(=O)N2c2ccccc2)c2ccccc21)NCc1ccccc1 (stereo not drawn),inactive: 82%
13,Cc1cccc(C)c1NS(=O)(=O)c1ccc(NS(=O)(=O)c2ccc3c(c2)OCCO3)cc1,inactive: 110%
14,O=C(Nc1noc2ccccc12)c1ccc(F)cc1,inactive: 67%
15,CCOC(=O)c1ccc(NC(=O)C2(S(=O)(=O)c3ccc(Cl)cc3)CC2)cc1,inactive: 75%
16,COc1ccc(CNC(=O)c2cc(=O)c3cc(C)ccc3o2)cc1,active: 45%
17,C=Cc1ccc(COc2ccc3oc(-c4ccccc4)c(C(=O)OCC)c3c2)cc1,active: 45%
18,Cc1cccc(N2CCN(C(=O)CCS(=O)(=O)c3ccc4c(c3)oc(=O)n4C)CC2)c1C,inactive: 79%
